Measured values reported in the supplement of paper PMC4967469.
A lower IC50 marks a more sensitive line; a fit beyond the top or the lowest dose is shown as a bound at that dose. AUC sums up the same curve from the lowest dose to the 256-fold higher top dose; the more sensitive the line, the further below 1. Any top dose called inferred comes from the curve model; the source does not state it.

Key:
Test in all cases: Viability of human cancer cell lines after 72 h of drug (GDSC screen)
QL-XII-47 = compound: C=CC(=O)N1CCc2ccc(-n3c(=O)ccc4cnc5ccc(-c6cnn(C)c6)cc5c43)cc21 [QL-XII-47]; conditions: top dose 10.24 µM; top dose inferred
Protocol: (§1)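 Human cancer cell lines in 384-well plates, medium with 10% serum, drug for 72 h over a 256-fold dose range (nine 2-fold or five 4-fold steps up to the top dose). Adherent lines were fixed and stained with the nucleic acid dye Syto60, suspension lines read with resazurin; signal relative to control wells, capped at 0 and 100%. One two-parameter sigmoid per drug and line, fitted in a mixed model over all curves with the slope shared within a line.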

KIN001-266 = compound: CCN1CCC(n2cc(CNc3cc(Cl)c4ncc(C#N)c(Nc5ccc(F)c(Cl)c5)c4c3)nn2)CC1 [KIN001-266]; conditions: top dose 20 µM; top dose inferred
Protocol: as §1

BAY 61-3606 = compound: COc1ccc(-c2cc3nccn3c(Nc3ncccc3C(N)=O)n2)cc1OC [BAY 61-3606]; conditions: top dose 8 µM; top dose inferred
Protocol: as §1

CCT007093 = compound: O=C1/C(=C/c2cccs2)CC/C1=C\c1cccs1 [CCT007093]; conditions: top dose 6.6 µM; top dose inferred
Protocol: as §1

Row | Cell Line | AUC (QL-XII-47) | IC50 (QL-XII-47) [µM] | AUC (KIN001-266) | IC50 (KIN001-266) [µM] | AUC (BAY 61-3606) | IC50 (BAY 61-3606) [µM] | AUC (CCT007093) | IC50 (CCT007093) [µM]
1 | TMK-1 (stomach, adherent) | 0.939 | > 10.2 | 0.912 | > 20 | 0.811 | 4.58 | 0.864 | 6.35
2 | NCI-H596 (lung adenocarcinoma, adherent) | 0.689 | 2.56 | 0.877 | > 20 | 0.919 | > 8 | 0.96 | > 6.6
3 | H2722 (mesothelioma, adherent) | 0.819 | 7.3 | 0.862 | > 20 | 0.727 | 2.54 | 0.975 | > 6.6
4 | LU-135 (small cell lung carcinoma, suspension) | 0.874 | 7.16 | 0.843 | 10.7 | 0.786 | 2.83 | 0.991 | > 6.6
5 | KYSE-180 (oesophagus, adherent) | 0.718 | 2.56 | 0.875 | 18.2 | 0.823 | 4.43 | 0.988 | > 6.6
6 | BFTC-909 (kidney, adherent) | 0.828 | 6.14 | 0.912 | > 20 | 0.948 | > 8 | 0.985 | > 6.6
7 | NCI-H1781 (lung adenocarcinoma, adherent) | 0.989 | > 10.2 | 0.94 | > 20 | 0.959 | > 8 | 0.968 | > 6.6
8 | NCI-H1693 (lung adenocarcinoma, adherent) | 0.92 | > 10.2 | 0.949 | > 20 | 0.898 | > 8 | 0.964 | > 6.6
9 | LN-18 (glioma, adherent) | 0.967 | > 10.2 | 0.915 | 19.7 | 0.928 | > 8 | 0.994 | > 6.6
10 | NCI-H2087 (lung adenocarcinoma, semi-adherent) | 0.354 | 0.244 | 0.859 | 18.6 | 0.748 | 2.74 | 0.983 | > 6.6
11 | K5 (thyroid, adherent) | 0.524 | 0.742 | 0.854 | 14.7 | 0.818 | 4.26 | 0.978 | > 6.6
12 | 201T (lung adenocarcinoma, adherent) | 0.776 | 5.19 | 0.868 | > 20 | 0.785 | 4.4 | 0.974 | > 6.6
13 | NH-12 (neuroblastoma, adherent) | 0.521 | 0.734 | 0.858 | 19.8 | 0.736 | 2.59 | 0.974 | > 6.6
14 | COLO-680N (oesophagus, adherent) | 0.638 | 1.66 | 0.984 | > 20 | 0.887 | > 8 | 0.973 | > 6.6
15 | BCPAP (thyroid, adherent) | 0.74 | 2.86 | 0.782 | 7.55 | 0.768 | 2.73 | 0.926 | > 6.6
16 | T-24 (bladder, adherent) | 0.747 | 3.14 | 0.87 | 17.2 | 0.924 | > 8 | 0.95 | > 6.6
17 | T98G (glioma, adherent) | 0.954 | > 10.2 | 0.895 | > 20 | 0.958 | > 8 | 0.982 | > 6.6
18 | PCI-15A (head and neck, adherent) | 0.757 | 3.56 | 0.987 | > 20 | 0.873 | 7.8 | 0.953 | > 6.6
19 | A388 (skin, adherent) | 0.651 | 1.79 | 0.889 | > 20 | 0.82 | 5.5 | 0.915 | > 6.6
20 | HCC-44 (lung adenocarcinoma, adherent) | 0.494 | 0.618 | 0.852 | 14.9 | 0.705 | 1.87 | 0.986 | > 6.6
21 | H2591 (mesothelioma, adherent) | 0.892 | > 10.2 | 0.918 | > 20 | 0.911 | > 8 | 0.972 | > 6.6
22 | D-542MG (glioma, adherent) | 0.933 | > 10.2 | 0.856 | > 20 | 0.984 | > 8 | 0.98 | > 6.6
23 | NCI-H345 (small cell lung carcinoma, suspension) | 0.972 | > 10.2 | 0.988 | > 20 | 0.983 | > 8 | 0.99 | > 6.6
24 | ES5 (Ewing sarcoma, adherent) | 0.564 | 0.985 | 0.837 | 16.2 | 0.777 | 3.72 | 0.976 | > 6.6
25 | NCI-H1623 (lung adenocarcinoma, adherent) | 0.944 | > 10.2 | 0.921 | > 20 | 0.978 | > 8 | 0.937 | > 6.6
26 | H2373 (mesothelioma, adherent) | 0.981 | > 10.2 | 0.947 | > 20 | 0.877 | > 8 | 0.983 | > 6.6
